The test has as its target hepatitis C virus RNA dependent polymerase (NS5B) (Hepacivirus hominis (Hepatitis C virus), UniProt P26663). The test is described as follows: Inhibition of NS5B RNA dependent RNA polymerase activity (SPA, UMP-[5,6 3H] incorporation).
Setting [1] is: IC50 μM, first compound table (printed title TABLE 10; Table 1).

SMILES strings stand for the structures.

For orientation: IC50 means the concentration that gives 50% inhibition. A high value points to a need for much substance.

In turn, `NC(=O)[C@H](Cc1c[nH]c2ccc(NC(=O)C(=O)NCc3ccc(C(=O)O)cc3)cc12)NC(=O)c1ccc2c(c1)nc(-c1ccoc1)n2C1CCCCC1` [Entry 13012, 4-[({1-[3-((S)-2-Carbamoyl-2-{[1-(1-cyclohexyl-2-furan-3-yl-1H-benzimidazol-5-yl)-methanoyl]-amino}-ethyl)-1H-indol-5-ylcarbamoyl]-methanoyl}-amino)-methyl]-benzoic Acid] registered an IC50 (IC50, Table 13) of less than 1 µM. The compound `O=C(N[C@@H](Cc1c[nH]c2ccc(O)cc12)C(=O)NCCN1CCOCC1)c1ccc2c(c1)nc(-c1ccoc1)n2C1CCCCC1` [Entry 13017, 1-Cyclohexyl-2-furan-3-yl-1H-benzimidazole-5-carboxylic Acid [(S)-2-(5-Hydroxy-1H-indol-3-yl)-1-(2-morpholin-4-yl-ethylcarbamoyl)-ethyl]-amide] had an IC50 (IC50, Table 13) of less than 1 µM.

Where the note is “Table 11”, `O=C(N[C@@H](Cc1c[nH]c2ccc(NS(=O)(=O)C(F)(F)F)cc12)C(=O)O)c1ccc2c(c1)nc(-c1ccoc1)n2C1CCCCC1` [Entry 11026] yielded an IC50 of less than 1 µM. Where the note is “IC50, Table 21”, `O=C(O)COc1ccc2cc(CC(NC(=O)c3ccc4c(c3)nc(-c3ccoc3)n4C3CCCCC3)C(=O)O)ccc2c1` (racemic) [Entry 21002, 3-(6-Carboxymethoxy-naphthalen-2-yl)-2-{[1-(1-cyclohexyl-2-furan-3-yl-1H-benzimidazol-5-yl)-methanoyl]-amino}-propionic Acid] registered an IC50 of less than 1 µM. For the setting “IC50 μM, Table 2”, `COc1ccc(C(NC(=O)c2ccc3c(c2)nc(-c2cccc(O)c2)n3C2CCCCC2)C(=O)O)cc1OC` (centres unmarked) [Entry 2028] yielded an IC50 of 10 to 25 µM. Consider `O=C(N[C@@H](Cc1ccc(Nc2c(O)c(=O)c2=O)cc1)C(=O)O)c1ccc2c(c1)nc(-c1ccoc1)n2C1CCCCC1` [Entry 16025], for which the IC50 (IC50, Table 16) is less than 1 µM. Under setting [1], `CCOC(=O)c1cccc(NC(=O)N2CCC(NC(=O)c3ccc4c(c3)nc(-c3ccoc3)n4C3CCCCC3)C2)c1` (centres unmarked) [Entry 1203] yielded an IC50 of 10 to 25 µM. Still for that read-out and setting: next, `NC1CCC(NC(=O)c2ccc3c(c2)nc(-c2ccoc2)n3C2CCCCC2)CC1` (centres unmarked) [Entry 1183]: 1 to 5 µM; `CCOC(=O)CCNC(=O)N1CCCC(NC(=O)c2ccc3c(c2)nc(-c2ccoc2)n3C2CCCCC2)C1` (centres unmarked) [Entry 1217]: 10 to 25 µM.

In the case of `CCC(C)c1nc2cc(C(=O)NC(C(=O)O)c3ccc(OC)c(OC)c3)ccc2n1C1CCCCC1` (centres unmarked) [Entry 2032], the IC50 (IC50 μM, Table 2) was 10 to 25 µM. For `O=C(N[C@@H](Cc1c[nH]c2ccc(O)cc12)C(=O)O)c1ccc2c(c1)nc(-c1cnccn1)n2C1CCCCC1` [Entry 2112], the IC50 (IC50 μM, Table 2) was less than 1 µM. With `CC(=O)Nc1nc([C@H](Cc2c[nH]c3ccc(O)cc23)NC(=O)c2ccc3c(c2)nc(-c2ccoc2)n3C2CCCCC2)cs1` [Entry 14006, 1-Cyclohexyl-2-furan-3-yl-1H-benzimidazole-5-carboxylic Acid [(S)-1-(2-Acetylamino-thiazol-4-yl)-2-(5-hydroxy-1H-indol-3-yl)-ethyl]-amide], for the setting “IC50, Table 14”, the IC50 was less than 1 µM. In turn, `O=C(N[C@@H](Cc1ccc(O)c([N+](=O)[O-])c1)C(=O)O)c1ccc2c(c1)nc(-c1ccoc1)n2C1CCCCC1` [Entry 1019] had an IC50 under setting [1] of 1 to 5 µM. For `Cc1cc(CC(NC(=O)c2ccc3c(c2)nc(-c2ccoc2)n3C2CCCCC2)C(=O)O)cc(Cl)c1OCC(=O)O` (racemic) [Entry 16055, 3-(4-Carboxymethoxy-3-chloro-5-methyl-phenyl)-2-{[1-(1-cyclohexyl-2-furan-3-yl-1H-benzimidazol-5-yl)-methanoyl]-amino}-propionic Acid], the IC50 (IC50, Table 16) was less than 1 µM.

Compound `COc1ccc(C(NC(=O)c2ccc3c(c2)nc(-c2ccc(OCc4ccccc4)cc2)n3C2CCCCC2)C(=O)O)cc1OC` (centres unmarked) [Entry 2030] registered an IC50 (IC50 μM, Table 2) of 10 to 25 µM. With `O=C(N[C@@H](Cc1c[nH]c2ccc(O)cc12)C(=O)O)c1ccc2c(c1)nc(-c1ccoc1)n2C1CCCCCC1` [Entry 22016], the IC50 (IC50 μM, Table 22) was less than 1 µM. On to `O=C(N[C@@H](Cc1c[nH]c2ccc(O)cc12)C(=O)O)c1ccc2c(c1)nc(-c1cccc3c1OCO3)n2C1CCCCC1` [Entry 12005], for which the IC50 (IC50, Table 12) is less than 1 µM. In turn, `Nc1ccc2[nH]cc(C[C@H](NC(=O)c3ccc4c(c3)nc(-c3ccoc3)n4C3CCCCC3)C(=O)O)c2c1` [Entry 11023, (S)-3-(5-Amino-1H-indol-3-yl)-2-{[1-(1-cyclohexyl-2-furan-3-yl-1H-benzimidazol-5-yl)-methanoyl]-amino}-propionic Acid] showed an IC50 (IC50, Table 11) of less than 1 µM.

With `COc1cccc(-c2nc3cc(C(=O)N[C@@H](Cc4c[nH]c5ccc(O)cc45)C(=O)O)ccc3n2C2CCCCC2)c1O` [Entry 2105], under “IC50 μM, Table 2”, the IC50 lay within 1 to 5 µM. On the same count and under the same terms, to `O=C(N[C@@H](Cc1c[nH]c2ccc(O)cc12)C(=O)O)c1ccc2c(c1)nc(-c1nccc3ccccc13)n2C1CCCCC1` [Entry 2117] belongs 1 to 5 µM.

With `O=C(NC(Cc1c[nH]c2ccc(O)cc12)c1ccncc1)c1ccc2c(c1)nc(-c1ccoc1)n2C1CCCCC1` (racemic) [Entry 11033, 1-Cyclohexyl-2-furan-3-yl-1H-benzimidazole-5-carboxylic Acid [2-(5-Hydroxy-1H-indol-3-yl)-1-pyridin-4-yl-ethyl]-amide], the IC50 (IC50, Table 11) was less than 1 µM. Under setting [1], `O=C(N[C@@H](Cc1ccc(F)cc1)C(=O)O)c1ccc2c(c1)nc(-c1ccoc1)n2C1CCCCC1` [Entry 1020] registered an IC50 of 1 to 5 µM. As to `COc1cc(CNC(=O)c2ccc3c(c2)nc(-c2ccccn2)n3C2CCCCC2)cc(OC)c1OC` [Entry 2008], the IC50 (IC50 μM, Table 2) lay within 10 to 25 µM. As to `COC(=O)[C@H](Cc1c[nH]c2ccc(OCC(=O)O)cc12)NC(=O)c1ccc2c(c1)nc(-c1ccoc1)n2[C@@H]1CCCC[C@H]1O` [Entry 22005], the IC50 (IC50 μM, Table 22) is less than 1 µM.

On to `O=C(O)/C=C/c1ccc(CN[C@H]2CC[C@H](NC(=O)c3ccc4c(c3)nc(-c3ccoc3)n4C3CCCCC3)CC2)cc1` [Entry 1279], for which, under setting [1], the IC50 was 1 to 5 µM. As for `O=C(O)CC[C@H](NC(=O)c1ccc2c(c1)nc(-c1ccccn1)n2C1CCCCC1)C(=O)O` [Entry 2054], the IC50 (IC50 μM, Table 2) is 5 to 10 µM.

For the compound `Cc1nc(C)c(-c2nc3cc(C(=O)N[C@@H](Cc4c[nH]c5ccc(O)cc45)C(=O)O)ccc3n2C2CCCCC2)s1` [Entry 2123], the IC50 (IC50 μM, Table 2) was in the range of 1 to 5 µM. Still for that read-out and setting: to `Cc1cc(-c2nc3cc(C(=O)N[C@@H](Cc4c[nH]c5ccc(O)cc45)C(=O)O)ccc3n2C2CCCCC2)no1` [Entry 2127] belongs less than 1 µM. Compound `COc1ccc(C[C@H](NC(=O)c2ccc3c(c2)nc(-c2ccoc2)n3C2CCCCC2)C(=O)O)cc1` [Entry 1022] gave an IC50 under setting [1] of 1 to 5 µM.

Turning to `O=C(O)c1ccc2c(c1)nc(-c1ccsc1)n2C1CCCCC1` [Entry 7023], the IC50 (IC50 μM, Table 7) is 10 to 25 µM. Where the note is “IC50, Table 12”, `O=C(N[C@@H](Cc1c[nH]c2ccc(O)cc12)C(=O)O)c1ccc2c(c1)nc(-c1ccc3c(c1)OCO3)n2C1CCCCC1` [Entry 12004] showed an IC50 of less than 1 µM. In the case of `CCOC(=O)c1cccc(NC(=O)N[C@H]2CC[C@H](NC(=O)c3ccc4c(c3)nc(-c3ccoc3)n4C3CCCCC3)CC2)c1` [Entry 1208], under setting [1], the IC50 was in the range of 10 to 25 µM. `CC(=O)c1cc(C[C@H](NC(=O)c2ccc3c(c2)nc(-c2ccoc2)n3C2CCCCC2)C(=O)O)ccc1O` [Entry 1147, (S)-3-(3-Acetyl-4-hydroxy-phenyl)-2-{[1-(1-cyclohexyl-2-furan-3-yl-1H-benzimidazol-5-yl)-methanoyl]-amino}-propionic Acid] yielded an IC50 under setting [1] of 1 to 5 µM.

Turning to `CC(C)(Oc1ccc(C[C@H](NC(=O)c2ccc3c(c2)nc(-c2ccoc2)n3C2CCCCC2)C(=O)O)cc1)C(=O)O` [Entry 16018], the IC50 (IC50, Table 16) was less than 1 µM. `CC(=O)Nc1nc([C@H](Cc2ccc(OCC(=O)O)cc2)NC(=O)c2ccc3c(c2)nc(-c2ccoc2)n3C2CCCCC2)cs1` [Entry 1134, [4((S)-2-(2-Acetylamino-thiazol-4-yl)-2-{[1-(1-cyclohexyl-2-furan-3-yl-1H-benzimidazol-5-yl)-methanoyl]-amino}-ethyl)-phenoxy]-acetic Acid] came in with an IC50 under setting [1] of 1 to 5 µM.

In turn, `COc1ccc(C(NC(=O)c2ccc3c(c2)nc(-c2ccccn2)n3C2CCCCC2)C(C)C)cc1OC` (centres unmarked) [Entry 2012] returned an IC50 (IC50 μM, Table 2) of 10 to 25 µM. Regarding `Nc1nc([C@H](Cc2ccc(OCC(=O)O)cc2)NC(=O)c2ccc3c(c2)nc(-c2ccoc2)n3C2CCCCC2)cs1` [Entry 19002, [4-((S)-2-(2-Amino-thiazol-4-yl)-2-{[1-(1-cyclohexyl-2-furan-3-yl-1H-benzimidazol-5-yl)-methanoyl]-amino}-ethyl)-phenoxy]-acetic Acid], the IC50 (IC50, Table 19) is less than 1 µM. As for `COc1ccc(CCNC(=O)c2ccc3c(c2)nc(-c2ccncc2)n3C2CCCCC2)cc1OC` [Entry 2003], the IC50 (IC50 μM, Table 2) lay within 10 to 25 µM.

Under setting [1], `O=C(O)COc1ccc(C[C@H](NC(=O)c2ccc3c(c2)nc(-c2ccoc2)n3C2CCCCC2)c2cscn2)cc1` [Entry 1150] yielded an IC50 of 1 to 5 µM. On to `Cc1nc([C@H](Cc2c[nH]c3ccc(O)cc23)NC(=O)c2ccc3c(c2)nc(-c2ccoc2)n3C2CCCCC2)cs1` [Entry 14001, 1-Cyclohexyl-2-furan-3-yl-1H-benzimidazole-5-carboxylic Acid [(S)-2-(5-Hydroxy-1H-indol-3-yl)-1-(2-methyl-thiazol-4-yl)-ethyl]-amide], for which, under “IC50, Table 14”, the IC50 was less than 1 µM. In the case of `O=C(O)c1ccc(C[C@H](NC(=O)c2ccc3c(c2)nc(-c2ccoc2)n3C2CCCCC2)C(=O)O)cc1` [Entry 16012], the IC50 (IC50, Table 16) was less than 1 µM. On to `O=C(N[C@@H](Cc1c[nH]c2ccc(O)cc12)C(=O)O)c1ccc2c(c1)nc(-c1ccoc1)n2CC1CC1` [Entry 22015], for which, for the setting “IC50 μM, Table 22”, the IC50 was less than 1 µM. Regarding `O=C(O)COc1ccccc1CN1CCC(CNC(=O)c2ccc3c(c2)nc(-c2ccoc2)n3C2CCCCC2)CC1` [Entry 1262], the IC50 under setting [1] fell in the range of 10 to 25 µM. On the same count and under the same terms, next, `CC(CC(=O)Nc1cccc(C(=O)O)c1)NC(=O)c1ccc2c(c1)nc(-c1ccoc1)n2C1CCCCC1` (centres unmarked) [Entry 1179]: 1 to 5 µM.

For the origin of these results see patent US6448281B1 (Boehringer Ingelheim (Canada) Ltd., priority 2000, dated 2002).
